{
  "source": "the GPR68 mutational scans of Howard et al. (2025)",
  "parents": {"B1": {"name": "GPR68, Q15743 (parent)", "chain": "MGNITADNSSMSCTIDHTIHQTLAPVVYVTVLVVGFPANCLSLYFGYLQIKARNELGVYLCNLTVADLFYICSLPFWLQYVLQHDNWSHGDLSCQVCGILLYENIYISVGFLCCISVDRYLAVAHPFRFHQFRTLKAAVGVSVVIWAKELLTSIYFLMHEEVIEDENQHRVCFEHYPIQAWQRAINYYRFLVGFLFPICLLLASYQGILRAVRRSHGTQKSRKDQIQRLVLSTVVIFLACFLPYHVLLLVRSVWEASCDFAKGVFNAYHFSLLLTSFNCVADPVLYCFVSETTHRDLARLRGACLAFLTCSRTGRAREAYPLGAPEASGKSGAQGEEPELLTKLHPAFQTPNSPGSGGFPTGRLA"}},
  "key": {"[1]": {"variants_of": "B1", "experiment": "cAMP reporter score (Enrich2 score, wild type = 0); higher = more signal; HEK293T, FACS bins"}, "[2]": {"variants_of": "B1", "experiment": "surface expression score (Enrich2 score, wild type = 0); higher = more signal; HEK293T, FACS bins"}},
  "note": "The least precise scores are not listed. Two further conditions of the source, in which the scores hardly spread, are not listed. Read del as a deletion of the residues named and ins as an insertion between two positions. For some of these results: The concentration of ogerin is not given here.",
  "data": [
    {"variant": "MGNITADNSSMSCTIDHTIHQTLAPVVYVTVLVVGFPANCLSLYFGYLQIKARNELGVYLCNLTVADLFYICSLPFWLQYVLQHDNWSHGDLSCQVCGILLYENIYISVGFLCCISVDRYLAVAHPFRFHQFRTLKAAVGVSVVIWAKELLTSIYFLMHEEVIEDENQHRVCFEHYPIQAWQRAINYYRFLVGFLFPICLLLASYQGILRAVRRSHGTQKSRKDQIQRLVLSTVVIFLACFLPYHVLLLVRSVWEASCDFAKGVFNAYHFSLLLTSFNCVADPVLYCFVSETTHRDLARLRGACLAFLTCSRTGRAREAYPLGAPEASGMSGAQGEEPELLTKLHPAFQTPNSPGSGGFPTGRLA", "note": "[K330M]", "values": [
      {"measurement": "cAMP reporter score", "setting": "[1]; pH 5.5", "value": 0.683},
      {"measurement": "cAMP reporter score", "setting": "[1]; pH 6", "value": 1.48},
      {"measurement": "cAMP reporter score", "setting": "[1]; pH 6, modulator: ogerin", "value": 0.886},
      {"measurement": "cAMP reporter score", "setting": "[1]; pH 6.5, modulator: ogerin", "value": -0.079},
      {"measurement": "surface expression score", "setting": "[2]", "value": 1.43}
    ]},
    {"variant": "MGNITADNSSMSCTIDHTIHQTLAPVVYVTVLVVGFPANCLSLYFGYLQIKARNELGVYLCNLTVADLFYICSLPFWLQYVLQHDNWSHGDLSCQVCGILLYENIYISVGFLCCISVDRYLAVAHPFRFHQFRTLKAAVGVSVVIWAKELLTSIYFLMHEEVIEDENQHRVCFEHYPIQAWQRAINYYRFLVGFLFPICLLLASYQGILRAVRRSHGTQKSRKDQIQRLVLSTVVIFLACFLPYHVLLLVRSVWEASCDFAKGVFNAYHFSLLLTSFNCVADPVLYCFVSETTHRDLARLRGACLAFLTCSRTGRAREAYPLGAPEASGNSGAQGEEPELLTKLHPAFQTPNSPGSGGFPTGRLA", "note": "[K330N]", "values": [
      {"measurement": "cAMP reporter score", "setting": "[1]; pH 5.5", "value": -0.351},
      {"measurement": "cAMP reporter score", "setting": "[1]; pH 6", "value": 0.643},
      {"measurement": "cAMP reporter score", "setting": "[1]; pH 6, modulator: ogerin", "value": -0.077},
      {"measurement": "cAMP reporter score", "setting": "[1]; pH 6.5, modulator: ogerin", "value": -0.38},
      {"measurement": "surface expression score", "setting": "[2]", "value": 0.588}
    ]},
    {"variant": "MGNITADNSSMSCTIDHTIHQTLAPVVYVTVLVVGFPANCLSLYFGYLQIKARNELGVYLCNLTVADLFYICSLPFWLQYVLQHDNWSHGDLSCQVCGILLYENIYISVGFLCCISVDRYLAVAHPFRFHQFRTLKAAVGVSVVIWAKELLTSIYFLMHEEVIEDENQHRVCFEHYPIQAWQRAINYYRFLVGFLFPICLLLASYQGILRAVRRSHGTQKSRKDQIQRLVLSTVVIFLACFLPYHVLLLVRSVWEASCDFAKGVFNAYHFSLLLTSFNCVADPVLYCFVSETTHRDLARLRGACLAFLTCSRTGRAREAYPLGAPEASGPSGAQGEEPELLTKLHPAFQTPNSPGSGGFPTGRLA", "note": "[K330P]", "values": [
      {"measurement": "cAMP reporter score", "setting": "[1]; pH 5.5", "value": 0.561},
      {"measurement": "cAMP reporter score", "setting": "[1]; pH 6", "value": 0.182},
      {"measurement": "cAMP reporter score", "setting": "[1]; pH 6, modulator: ogerin", "value": 0.608},
      {"measurement": "cAMP reporter score", "setting": "[1]; pH 6.5, modulator: ogerin", "value": 0.743},
      {"measurement": "surface expression score", "setting": "[2]", "value": 0.498}
    ]},
    {"variant": "MGNITADNSSMSCTIDHTIHQTLAPVVYVTVLVVGFPANCLSLYFGYLQIKARNELGVYLCNLTVADLFYICSLPFWLQYVLQHDNWSHGDLSCQVCGILLYENIYISVGFLCCISVDRYLAVAHPFRFHQFRTLKAAVGVSVVIWAKELLTSIYFLMHEEVIEDENQHRVCFEHYPIQAWQRAINYYRFLVGFLFPICLLLASYQGILRAVRRSHGTQKSRKDQIQRLVLSTVVIFLACFLPYHVLLLVRSVWEASCDFAKGVFNAYHFSLLLTSFNCVADPVLYCFVSETTHRDLARLRGACLAFLTCSRTGRAREAYPLGAPEASGQSGAQGEEPELLTKLHPAFQTPNSPGSGGFPTGRLA", "note": "[K330Q]", "values": [
      {"measurement": "cAMP reporter score", "setting": "[1]; pH 5.5", "value": -0.104},
      {"measurement": "cAMP reporter score", "setting": "[1]; pH 6", "value": 0.31},
      {"measurement": "cAMP reporter score", "setting": "[1]; pH 6.5, modulator: ogerin", "value": 0.527},
      {"measurement": "surface expression score", "setting": "[2]", "value": 1.48}
    ]}
  ]
}
